# According to PubChem BioAssay AID652104 (National Center for Advancing Translational Sciences (NCATS), 2013):
# Hit rate of the full screen: of about 410,000 compounds, about 7,200 (1.8%) were called active. This list was built around the results that the source calls inconclusive (neither active nor inactive); the mix of calls is not that of the screen. Calls follow the shape of the dose curve; as a rule, active = well fitted activation curve with a large enough effect; inconclusive = small, poorly fitted or top-dose-only effect, or another doubt; inactive = no such curve, though single readings can be large or run the other way. Potencies of inconclusive entries are left out as doubtful fits.
# Test: qHTS of TDP-43 Inhibitors; also: nearly all actives have a fitted effect of over 50% in size
# Conditions: TDP-43 expressing yeast growth rescue, BacTiter-Glo, 24 h; series mostly up to 46.1 µM
# Method in brief: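 Luminescence from BacTiter-Glo reports growth of TDP-43-expressing yeast after 24 hr at 30 deg C with compound. Cells were raffinose-pregrown to mid-log, then seeded in galactose medium at OD600=0.02.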
# Potency is read from the fitted curve at half-maximal effect; tags tell the direction and shape of the fitted curve.
row,Compound,Potency
1,CCOC(=O)c1c(-c2ccccc2)csc1NC(=O)c1cc(=O)c2ccc(C)cc2o1,"inconclusive [activator, single point]"
2,Cc1cc(C)cc(NC(=S)/N=C(\N)Nc2nc(C)c3ccccc3n2)c1,active: 15.8 µM
3,COc1ccc(-c2cc(C)no2)cc1S(=O)(=O)Nc1c(C)cc(C)cc1C,"inconclusive [activator, single point]"
4,COc1ccc(OC)c2sc(NC(=O)C3=COCCO3)nc12,"inconclusive [activator, full curve, poor fit]"
5,C#CCn1c(=O)cc(C)c2ccccc21,"inconclusive [activator, full curve, poor fit]"
6,CC(C)(C(=O)N1CCC1(C)C(=O)NC1Cc2ccccc2C1)c1ccccc1 (stereo not drawn),"inconclusive [activator, partial curve]"
7,CCn1c(SCc2ccc(C)cc2)nnc1C1CCN(S(=O)(=O)c2ccc(OC)cc2)CC1,inactive
8,COc1ccc(C(=O)Cc2nnc(C)s2)cc1,inactive
9,COc1ccc2c(c1)OC[C@H]1[C@H]2N2C(=O)c3cc(Br)ccc3NC(=O)[C@@]2(C)[C@H]1c1ccccc1,"inconclusive [activator, single point]"
10,CC1Oc2ccc(C#N)cc2N(Cc2cccc(F)c2)C1=O (stereo not drawn),"inconclusive [activator, partial curve, poor fit]"
11,COc1ccc(C)cc1NC(=O)CSc1nnc(-c2ccccn2)n1Cc1ccco1,"inconclusive [activator, single point]"
12,O=C(NCc1cccc(F)c1)C1CCCN(C(=O)N2CCOc3ccccc32)C1 (stereo not drawn),"inconclusive [activator, partial curve, poor fit]"
13,COc1cccc(C(=O)NCCc2csc(-c3ccc(Cl)cc3)n2)c1,active: 35.5 µM
14,O=C(/C=C/c1ccc(F)cc1)NC(=S)NNC(=O)[C@H]1C[C@@H]1c1ccccc1,active: 6.31 µM
15,CCOC(=O)C1CCN(S(=O)(=O)c2ccc3[nH]c4c(c3c2)CCCC4)CC1,"inconclusive [activator, single point]"
16,COc1ccccc1N1CCN(c2ncnc3onc(-c4ccc(F)cc4)c23)CC1,active: 15.8 µM
17,CCn1c(SCC#N)nc2c(c1=O)C1(CCCC1)Cc1ccccc1-2,"inconclusive [activator, partial curve]"
18,COc1cccc(OCc2nnc(SCC(=O)OC3CCCCC3)n2C)c1,"inconclusive [activator, partial curve]"
